Consider 72 sequences from the supplement of paper PMC10338343.

± gives the standard deviation. In all, about 6,600 sequences were measured (“pre-steady-state target cleavage rate”: median about 0.07, highest 2% from about 0.72 on). The list shows a part of the results, in another mix than the full data. A value given as a limit tells only on which side of the number the result lay.

The subject of the experiment is MIWI (PIWIL1) piRISC loaded with Kctd7 piRNA (30 nt). Briefly: pre-steady-state target cleavage rate (min^-1); MIWI and MILI are mouse PIWI proteins and EfPiwi is from a freshwater sponge; tags in brackets are library labels; higher = faster piRNA-guided slicing of the target. To be noted: guide: Kctd7 piRNA 5'p-UGUUAAUCUCUCAGAGAAGGUGACAGUGAU; auxiliary factor: 500 nM mouse GTSF1. Here is the method: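 Cleave-'n-Seq: a library of target RNAs (target site embedded in constant flanks, ACAGCATTCCGCGTTAGTGATATCCG... 5' flank; DNA-blocked outside the site) at 0.1 nM was incubated with 1 nM active mouse MILI or MIWI piRISC (synthetic 5'-monophosphorylated piRNA guide) with or without 500 nM mouse GTSF1 at 33 °C for 1 min to 16 h. Uncleaved targets were sequenced and normalised to non-target controls, and the pooled three trials were fitted to a burst-and-steady-state model to give the pre-steady-state cleavage rate (min^-1; k3 is constrained to at most 1e-4). Sequence is the target site only; target names encode pairing extent (gX:gY) and contiguous / 1-mismatch / 2-mismatch / bulge geometry. Fits with R² ≤ 0 are excluded.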
On to UAGUGUGUCACGUUCUCUGAGAGAUAAACA, for which the “pre-steady-state target cleavage rate” value turned out to be 0.31 ± 0.03.
The result for UAGUGACUCACCAAGUCUGAGAGAUUAACA reads 0.00555 ± 0.0032; that for UUCACUGUCACCUGUCUCUGAGAGAUUAACA, 0.618 ± 0.029; that for UAGUGACAGUGGUUCUCUGACAGAUUAUCA, < 0.0001.
On to UUACACUGUCACCUUCUCUGAGAGAUUAACA, for which the “pre-steady-state target cleavage rate” value stood at 0.769 ± 0.044.
For UUGACUGUCACCUUCUCUGAGAGAUUUUGA the value was 0.00803 ± 0.0039; for UAGACUGUCACCUUCUCUGAGAGAUUAAGA, 0.192 ± 0.026; for UACUCUGUCACCUUCUCUGAGAGUUUAACA, 0.781 ± 0.098.
The result for UAGUGAGUCACCUUCUCUGAGAGUUAUUGA reads 0.112 ± 0.029.
UAGACUGCCACCUUCUCUGAGAGAUUAACA: the “pre-steady-state target cleavage rate” value is 0.705 ± 0.026.
With AUCACUGUCACGUUCUCUGAGAGAAUAACA, the “pre-steady-state target cleavage rate” value is 0.197 ± 0.032.
In the case of UUCACUGUCUGCUUCUCUGAGAGAUUAAGA, the “pre-steady-state target cleavage rate” value was 0.111 ± 0.018.
For UAGUGACAGACCUUCUGUGAGUGAUUAACA the value was 0.00843 ± 0.0031; for UAGUCUGUCACCGUCUCUGAGAGAUUAACA, 0.612 ± 0.029; for UAGAGACUCACCUUCUCUGAGAGAUAUUGA, 0.0169 ± 0.0054.
In the case of UAGUGUGUCACCUUCUCUGACGAGAUUAACA, the “pre-steady-state target cleavage rate” value came out at 0.0103 ± 0.0059.
Regarding UAGUGUGUCUCCUUCUCUCAGAGAUUAACA, the “pre-steady-state target cleavage rate” value is 0.0709 ± 0.0076.
With UAGACUGUGACCUUCUCUGAGUGAUUAACA, the “pre-steady-state target cleavage rate” value turned out to be 0.0166 ± 0.0032.
Consider UAGUCUGUCACCUUCUCUGAGAGAUUAGACA, for which the “pre-steady-state target cleavage rate” value is 0.138 ± 0.041.
Take UAGUCUGUCUGCUUCUCUGAGAGAUUAACA: the “pre-steady-state target cleavage rate” value is 0.605 ± 0.048.
For UAGUGUGUCACCUACUCUGAGACAUUAACA the value was 0.116 ± 0.018; for UUCACUGUCACCUUCUGUGAGAGAUUAUCA, 0.175 ± 0.045; for AUCACUGUCACCUUGUCUGAGAGAUUUUGA, 1.4 ± 0.36.
For UAGACUGUCUCCUACUCUGAGAGAUUAACA the value was 0.708 ± 0.049; for UAGACUGUCACGUUCUGUGAGAGAUUAACA, 0.509 ± 0.028; for AUCACUGUCAGGUUCUCUGAGAGAUUAUGA, 0.0157 ± 0.0039.
Turning to UAGUGACAGUGGAAGAGACUUAGAUUAACA, the “pre-steady-state target cleavage rate” value is < 0.0001.
For UAGUGUGUCUGCUUCUCUGAGAGAUUAAGA the value was 0.0828 ± 0.016.
Regarding AUCACUGUACACCUUCUCUGAGAGAUUAACA, the “pre-steady-state target cleavage rate” value came to 0.8 ± 0.055.
UAGACUGUCACCUUCUCAGAGAGAAUAACA: the “pre-steady-state target cleavage rate” value is 0.0347 ± 0.0078.
For UAGACUGUCACCUACUCUGAGAGAUUAACA the value was 0.666 ± 0.049.
Take UAGUGACAGAGCUUCUCUGAGACAUUAACA: the “pre-steady-state target cleavage rate” value is 0.00901 ± 0.0027.
For AUGUCUGUCACCUUCUCUGAGAGAUUUUGA, the “pre-steady-state target cleavage rate” value amounted to 0.026 ± 0.0093.
The result for UAGUGACUCACCAUCUCUGAGAGAUUAUCA reads 0.17 ± 0.035.
The result for UUCACUGUCACCUUCUUCUGAGAGAUUAACA reads 0.115 ± 0.028; that for UAGUGAGUCACCUUCUCUCAGAGUUUAACA, 0.0308 ± 0.0074.
The result for UACAGUGUCACCUUCUCUGAGAGAUAAACA reads 0.344 ± 0.04; that for UAGUGUGUCACGUUCUCUGAGAGAUUAAGA, 0.123 ± 0.021.
For UAGUGACUCUCCUUCUGUGAGAGAUUAACA, the “pre-steady-state target cleavage rate” value is 0.0463 ± 0.0069.
In the case of UACACUGUCACCUACUCUGAGUGAUUAACA, the “pre-steady-state target cleavage rate” value amounted to 0.0298 ± 0.0053.
The result for UAGUGUGUGCACCUUCUCUGAGAGAUUAACA reads 0.581 ± 0.049; that for UAGUGACUCACCUUCUCUGACAGAUUAUGA, 0.00461 ± 0.0027; that for UAGUGAGUCACCAAGUCUGAGAGAUUAACA, 0.0365 ± 0.0067.
The result for UAGUGACUCACCUUCACUGAGAGAUAUUGA reads 0.00685 ± 0.0029; that for UAGUGACAGACCUUCUCUGAGAGAUUUAGA, 0.00342 ± 0.0031; that for UAGUGACAGUGCUUCUGUGAGAGAUUAACA, 0.012 ± 0.0037.
As to UAGUGACUCACCUUCUCUGAGACAAUAACA, the “pre-steady-state target cleavage rate” value came to 0.0072 ± 0.0031.
The result for UAGUGACAGACCUUCUCUGAGAGAUUAAUA reads 0.141 ± 0.022; that for UAGUGACACGCCUUCUCUGAGAGAUUAACA, 0.353 ± 0.031.
The result for UACACUGUCACCUUCUCUGAGAGUAUAACA reads 0.195 ± 0.033; that for UAGUCUGUCACCAUCACUGAGAGAUUAACA, 0.301 ± 0.02.
The result for UAGUGACUCACCUUGUCUCAGAGAUUAACA reads 0.00485 ± 0.0027; that for UACACUGUCACCUACUCUGAGAGAAUAACA, 0.132 ± 0.025.
With UAGUGUGUCACCCUCUCUGAGAGAUUAACA, the “pre-steady-state target cleavage rate” value came to 0.6 ± 0.04.
For UAGUGUCUCACCUUCUCUGAGAGAUAAACA the value was 0.211 ± 0.025; for UUCACUGUCACCUUCUCUGUCUGAUUUUGA, 0.00953 ± 0.0049.
In the case of UAGUGAGUGACCUUGUCUGAGAGAUUAACA, the “pre-steady-state target cleavage rate” value is 0.0927 ± 0.013.
In the case of AUCACUGUCACCAUCUCUGAGAGAUUAUCA, the “pre-steady-state target cleavage rate” value was 0.296 ± 0.033.
For UAGUGAGUCACCAUCUCUGAGACAUUAACA the value was 0.146 ± 0.017; for UAGUGUGUCACCAUCUGUGAGAGAUUAACA, 0.344 ± 0.021.
For the sequence UAGUGACAGACCGUCUCUGAGAGAUUAACA, the “pre-steady-state target cleavage rate” value is 0.0219 ± 0.0047.
The result for UAGACUUGUCACCUUCUCUGAGAGAUUAACA reads 0.611 ± 0.08; that for AUCACUGUCACCAACUCUGAGAGAUUAACA, 0.666 ± 0.054.
For UAGUCUGUCACCUUCUCUGAGAGAUAUAGA the value was 0.0222 ± 0.0086; for UUCACUGUCACCUUCUCUCUGAGAUUAUGA, 0.00778 ± 0.0051; for UACACUGUCACCUUCUCUGAGCGAUUAACA, 0.101 ± 0.0096.
UAGUCUGUCACCUUCUCUGAGACAUUAACA: the “pre-steady-state target cleavage rate” value was determined as 0.174 ± 0.019.
On to UUCACACACACCUUCUCUGAGAGAUUAACA, for which the “pre-steady-state target cleavage rate” value worked out at 0.493 ± 0.027.
In the case of UACUCUGUCACCUUCUCUGAGAGAUAUUGA, the “pre-steady-state target cleavage rate” value was 0.0791 ± 0.018.
UAGUGACAGUGGAACUCUGACAGAUUUACA: the “pre-steady-state target cleavage rate” value was < 0.0001.
For UAGUGACACACCUUCUCUCAGAGUUUAACA the value was 0.0159 ± 0.0037; for UAGUGAGUCACCUACUCUGAGACAUUAACA, 0.0677 ± 0.01.
